The whole screen tested about 52,000 compounds, of which about 1,700 (3.3%) were called active. No stated cut-off is given here; in the data, active means survival mostly below about 52% (no sharp cut-off); inactive means mostly above about 56%. This is one part of the list.

The experiment has as its system Wild type. The experiment is described as follows: growth inhibition of S. aureus wild type versus tarO mutant, primary screen, teichoic acid synthesis inhibitors, RN4220, OD600 (AID 463173). Particulars: S. aureus RN4220 wild type/DeltatarO growth, OD600, 18 h, stronger effect = lower value, screened at 18.75 µg/mL (by protocol).
In the case of `O=C(Cn1c(=O)sc2ccccc21)OCc1ccccc1`, the survival is inactive: 118%.
Regarding `CCOC(=O)c1c(NC(=O)C(C)Sc2cn(CCNC(=O)c3ccc(OC)cc3)c3ccccc23)sc2c1CCC2` (configuration not stated), the survival was inactive: 75%.
In the case of `Cc1ccc(CSCCNC(=O)CN(c2cccc(C)c2C)S(=O)(=O)c2ccccc2)cc1`, the survival was inactive: 67%.
The value for `O=C(NCc1ccc(Cl)cc1)c1cnc(N2CCOCC2)c2ccccc12` was inactive: 74%; that for `COc1ccccc1NC(=O)C1=C(C)Nc2nc(SCC(=O)c3ccc(C)cc3)nn2C1c1ccc(F)cc1` (configuration not stated) was inactive: 127%; that for `Cc1ccc2c(c1)cc(CN(Cc1ccc3c(c1)OCO3)S(=O)(=O)c1ccccc1)c1nnnn12` was inactive: 104%.
With `Cc1cccc(N2C(=O)N(Cc3ccc(C(C)(C)C)cc3)c3ccccc3S2(=O)=O)c1` the figure was inactive: 55%; with `CC1CCCN(S(=O)(=O)c2cc(C(=O)NCCc3ccccc3)n(C)c2)C1` (configuration not stated), inactive: 75%.
As to `COc1ccc(CNC(=O)c2ccc3c(c2)CCN3S(=O)(=O)c2ccccc2)cc1`, the survival was inactive: 80%.
As to `COC(=O)C1=CNC=C(C(=O)OC)C1c1ccc(C(F)(F)F)cc1`, the survival was inactive: 116%.
For `Cc1ccccc1CNC(=O)c1ccc(Cn2c(SCc3ccccc3)nc3cccnc32)cc1`, the survival is active: -2%.
On to `O=C(NCc1cccnc1)C1CCCCC1`, for which the survival is inactive: 108%.
Regarding `CC(=O)c1cccc(NC(=O)Nc2cc3c(cc2N2CCCC2)n(C)c(=O)n3C)c1`, the survival was inactive: 137%.
With `CCc1ccc(C(=O)Nc2cccc(-c3nc4cc(C(C)C)ccc4o3)c2)cc1`, the survival was inactive: 25%.
Take `Cc1ccc(Cl)cc1NC(=O)c1ccc2nc(CCc3ccccc3)oc2c1`: the survival is inactive: 88%.
In the case of `Cc1ccc(-c2nc(CNC(=O)NC3CCCCC3)c(C)o2)cc1`, the survival is inactive: 65%.
Take `COc1ccc(CNc2nc(-c3ccco3)nn2C(=O)c2ccccc2C)cc1`: the survival was inactive: 86%.
Take `CC1C(=O)CC(c2ccco2)NC1c1ccco1` (configuration not stated): the survival is inactive: 103%.
The value for `CCOc1ccc(Nc2oc(-c3ccc(COc4ccc(C)cc4)o3)nc2C#N)cc1` was inactive: 83%.
Consider `CCn1cc(C(=O)NCc2ccccc2Cl)c(=O)c2cc(S(=O)(=O)N3CCCCCC3)ccc21`, for which the survival was inactive: 69%.
Consider `CCCCC(=O)Nc1ccc(C(=O)OCc2cc(=O)n3ccsc3n2)cc1`, for which the survival was inactive: 83%.
`O=S(=O)(c1ccccc1)c1nc(-c2ccco2)oc1SCc1ccc(F)cc1`: the survival is inactive: 83%.
As for `COc1ccc(NC(=O)c2nnn(CC(=O)Nc3cc(C)cc(C)c3)c2N)c(OC)c1`, the survival is inactive: 139%.
Turning to `COc1ccc(Cn2c(SCc3ccc(C(=O)NCc4cccs4)cc3)nc3ccncc32)cc1`, the survival is inactive: 81%.
Turning to `CCN(C(=O)c1cc(S(=O)(=O)N2CCCC2)cn1C)c1ccc(OC)cc1`, the survival is inactive: 79%.
Take `CCOC(=O)c1sc2cccc(F)c2c1S(=O)(=O)Nc1ccccc1F`: the survival was inactive: 124%.
With `O=C(CCCn1c(=O)[nH]c2ccsc2c1=O)N1CCN(c2ccc(Cl)cc2)CC1`, the survival is inactive: 63%.
With `Cc1ccc(C)c(NC(=O)Cn2c(=O)n(CC(=O)NCCc3ccccc3)c(=O)c3ccccc32)c1` the figure was inactive: 78%; with `O=C(CSc1nnc(-c2ccc(Cl)cc2)c(-c2ccc(Cl)cc2)n1)NC1CCCC1`, inactive: 65%.
For `Cc1ccc(NC(=O)Cn2c(=O)cc(-c3ccccc3)c3c(C)nn(C)c32)c(Cl)c1`, the survival is inactive: 80%.
As to `CCOCCCNC(=O)Cn1nc(CC)n2c(cc3c(OC)cccc32)c1=O`, the survival is inactive: 86%.
For the compound `COC(=O)c1ccc(NC(=O)CSc2nc3cc4ccccc4cc3[nH]2)cc1`, the survival is inactive: 80%.
With `N#Cc1ccccc1NC(=O)C(=O)NCC(c1cccnc1)N1CCc2ccccc21` (configuration not stated), the survival was inactive: 90%.
On to `COc1cc(OC)c(NC(=O)C(C)n2nc(-c3ccc(C)cc3)c3c(c2=O)CCCC3)cc1Cl` (configuration not stated), for which the survival is inactive: 76%.
With `O=C(Nc1cc(F)ccc1F)c1cnn2c(C(F)F)cc(-c3ccccc3)nc12`, the survival was inactive: 143%.
In the case of `CCOC(=O)CC(NC(=O)CCc1c(C)nc2cc(-c3ccccc3)nn2c1C)c1ccc(C)cc1` (configuration not stated), the survival was inactive: 128%.
With `Cc1ccc(NC(=O)C2CCCN(c3ncnc4onc(C)c34)C2)cc1Cl` (configuration not stated) the figure was inactive: 121%; with `O=C(c1ccccc1)c1ccc2nc(N3CCN(c4ccc(F)cc4)CC3)c3nncn3c2c1`, inactive: 89%.
Regarding `COc1ccccc1-c1cc2nc(C)c(CCC(=O)NC3CCCCC3)c(C)n2n1`, the survival was inactive: 73%.
`COc1ccc(CCNC(=O)c2cc3n(n2)C(C(F)(F)F)CC(C2CC2)N3)cc1OC` (configuration not stated): the survival was inactive: 93%.
For the compound `Cc1ccc(S(=O)(=O)c2nnn3c2nc(N2CCN(c4cccc(C)c4C)CC2)c2ccccc23)cc1C`, the survival was inactive: 66%.
The value for `COc1cc(C=C(C#N)C#N)ccc1OC(=O)c1ccco1` was inactive: 105%.
With `COc1ccc(CCNC(=O)CSc2nnc(-c3ccc(C)cc3)c(-c3ccc(C)cc3)n2)cc1OC` the figure was inactive: 69%; with `CCCCOc1cccc(C(=O)N(Cc2ccc(Cl)cc2)C2CCS(=O)(=O)C2)c1` (configuration not stated), inactive: 93%; with `Cc1ccc(-c2noc(-c3ccc(NCC4CCCO4)c([N+](=O)[O-])c3)n2)cc1` (configuration not stated), inactive: 88%.
As to `CCNC(=S)N1CCN(CC)CC1`, the survival was inactive: 114%.
Regarding `CS(=O)(=O)n1nc(-c2ccco2)nc1N`, the survival was inactive: 94%.
Turning to `CC(=O)c1ccc(N2CCN(C(=O)CS(=O)(=O)c3cccc4nsnc34)CC2)cc1`, the survival is inactive: 71%.
In the case of `COc1cccc(C2=NN(S(C)(=O)=O)C(c3cn(-c4ccccc4)nc3-c3cccs3)C2)c1` (configuration not stated), the survival was inactive: 158%.
`COc1ccc(CNC(=O)CN(C)c2nn3c(=O)cc(C)nc3s2)cc1`: the survival is inactive: 86%.
For the compound `Cc1cc(=O)[nH]c2nnc(SCCC(C)C)n12`, the survival is inactive: 72%.
For the compound `COc1ccccc1NC(=O)N1CC=C(c2c[nH]c3ccccc23)CC1`, the survival is inactive: 25%.
With `COc1ccc(C(=O)c2cn(Cc3ccccc3F)c3ccc(F)cc3c2=O)cc1` the figure was inactive: 97%.
Take `CC1(C)CCCC2(C)C1CCC(C)(O)C2CCO` (configuration not stated): the survival is inactive: 111%.
In the case of `Cc1ccc(-c2nnc(Nc3ccc(Cl)cc3)c3ccccc23)cc1S(=O)(=O)NCC1CCCO1` (configuration not stated), the survival is inactive: 114%.
Turning to `O=C(c1cccc(Cl)c1)N1CCC(c2nc3c(nnn3Cc3ccc(F)cc3F)c(=O)[nH]2)CC1`, the survival was active: 9%.
As to `COc1cc(C(=O)Nc2ccccc2OCc2cc(=O)n3cc(C)sc3n2)cc(OC)c1OC`, the survival is inactive: 136%.
As to `Nc1nc(N)nc(COc2ccccc2)n1`, the survival is inactive: 104%.
With `COc1ccc(-c2[nH]c(-c3ccc(OC)c(OC)c3)nc2SCC(=O)Nc2ccccc2)cc1`, the survival was inactive: 83%.
With `Cc1cccc(NC(=O)c2oc3ccc(S(=O)(=O)N4CCCCC4)cc3c2C)c1C` the figure was inactive: 70%; with `COCc1[nH]nc2c1C(c1ccccc1C(F)(F)F)C(C#N)=C(N)O2` (configuration not stated), inactive: 114%; with `Cc1ccc(Nc2c(-c3ccc(N(C)C)cc3)nc3ccccn23)cc1`, inactive: 129%.
With `Cn1ccc2cc(S(=O)(=O)N3CCCN(C(=O)Nc4ccc(Br)cc4)CC3)ccc21` the figure was inactive: 75%; with `CCOc1ccccc1C(=O)N(Cc1ccc(N(C)C)cc1)Cc1ccco1`, inactive: 92%.
Regarding `CCOc1ccc(-c2nc3c(c(CC)nn3-c3ccccc3)c3cc(OC)c(OC)cc23)cc1`, the survival is inactive: 88%.
With `CSc1ccccc1NC(=O)C1=CC(c2ccc3c(c2)OCO3)=NS(=O)(=O)N1C`, the survival was inactive: 87%.
With `CCOC(=O)c1ccc2c(c1)N(CC(=O)Nc1cc(F)ccc1F)C(=O)c1ccccc1S2` the figure was inactive: 78%; with `O=C(NCCCN1CCN(c2ccc(F)cc2)CC1)c1cc2c(s1)-c1ccccc1OC2`, inactive: 62%; with `CCN(CC)CCOC(=O)c1ccc(NC(=O)c2nn(-c3ccc(C)cc3)c(=O)c3c2c2ccccc2n3C)cc1`, inactive: 123%.
As for `CCN(C(=O)Cn1nc2c3cc(F)ccc3n(Cc3cccc(C)c3)cc-2c1=O)c1cccc(C)c1`, the survival was inactive: 129%.
`CCOC(=O)CCN(Cc1ccccc1)S(=O)(=O)c1csc(C(N)=O)c1`: the survival is inactive: 92%.
Turning to `N=c1n(CC(=O)O)c2ccccc2n1Cc1ccccc1`, the survival was inactive: 112%.
Take `COc1ccc(NC(=O)c2c(NC(=O)COc3ccc(Cl)cc3)sc3c2CCCCC3)cc1`: the survival was inactive: 143%.
For the compound `Cc1cccc(-c2nc3cc(NC(=O)Cc4ccc(Cl)cc4)ccc3o2)c1`, the survival was inactive: 83%.
As to `COc1cc(OC)c(NC(=O)N2CCOc3ccc(C)cc32)cc1Cl`, the survival is inactive: 82%.
Consider `Cc1nn(-c2ccccc2)c2sc(C(=O)NN=C3CCCC3)cc12`, for which the survival is inactive: 109%.
Consider `O=c1c2c(n3nnnc3n1-c1ccccc1)-c1ccccc1CC21CCCC1`, for which the survival was inactive: 93%.
As for `CNC(=O)CN(C#N)c1nc(N(C)C)nc(N(C)C)n1`, the survival is inactive: 96%.
The value for `Cc1ccc(C)c(NC(=O)C(=O)NCC(c2cccnc2)N2CCN(c3ccc(F)cc3)CC2)c1` (configuration not stated) was inactive: 24%; that for `COc1ccc(CNC(=O)c2oc3c(c2C)-c2nn(Cc4ccccc4Cl)cc2CC3)cc1` was inactive: 105%.
For the compound `N#Cc1cc2c(=O)n3ccccc3nc2n(-c2nnc(SCc3ccc(F)cc3)s2)c1=O`, the survival was inactive: 97%.
Regarding `COc1ccc(Cn2nnc3c(=O)[nH]c(C4CCCN(C(=O)c5ccccc5Cl)C4)nc32)cc1OC` (configuration not stated), the survival is inactive: 90%.
As for `Cc1ccc(S(=O)(=O)c2cn(C)c3cc(N4CCN(c5ccccc5)CC4)c(F)cc3c2=O)cc1`, the survival was inactive: 74%.
With `CCOC(=O)N1CCc2c(sc3c2c(=O)n(Cc2ccccc2)c(=O)n3Cc2cccc(Cl)c2)C1`, the survival is inactive: 103%.
As for `CCOC(=O)c1ccc(NC(=O)c2nc(S(=O)(=O)Cc3ccccc3)ncc2Cl)cc1`, the survival is inactive: 20%.
Turning to `COc1cc(NC(=O)C2=C(C)Nc3nnnn3C2c2ccc(SC)cc2)c(OC)cc1Cl` (configuration not stated), the survival is inactive: 71%.
On to `CC1CN(C(=O)CCC(=O)NCc2cccs2)c2ccccc2O1` (configuration not stated), for which the survival is inactive: 81%.

For the origin of these results see PubChem BioAssay AID463173 (ICCB-Longwood Screening Facility, Harvard Medical School, 2010).
